Experimental data as given in US20240139156A1, “COMBINATION TREATING PROSTATE CANCER, PHARMACEUTICAL COMPOSITION AND TREATMENT METHOD” (KANGPU BIOPHARMACEUTICALS, LTD., priority 2017, published 2024).

System: Vcap cells (androgen receptor (+) prostate cancer cells)
Assay: CTG cell proliferation assay (CellTiter-Glo), compounds alone or in combination
Details: for viability at 1 µM / viability at 10 µM: Homo sapiens, VCaP, 120 h, read-out: Survival rate of Vcap cells; for effect of tested compound in combination with the other therapeutic agents (prednisone, Galeterone, Abiraterone acetate, ODM-201): Vcap cell survival, without B001, summary in words
[1] = 1 μM tested compound in combination with 1 μM Abiraterone acetate
[2] = 1 μM tested compound in combination with 1 μM B001
[3] = 1 μM tested compound in combination with 1 μM B001 and 1 μM Abiraterone acetate
[4] = 1 μM tested compound in combination with 1 μM B001 and 1 μM Galeterone
[5] = 1 μM tested compound in combination with 1 μM B001 and 1 μM ODM-201
[6] = 1 μM tested compound in combination with 1 μM B001 and 1 μM prednisone
[7] = 1 μM tested compound in combination with 1 μM B001 and 1 μM prednisone and 1 μM Abiraterone acetate
[8] = 1 μM tested compound in combination with 1 μM B001 and 1 μM prednisone and 1 μM Galeterone
[9] = 1 μM tested compound in combination with 1 μM B001 and 1 μM prednisone and 1 μM ODM-201
[10] = 1 μM tested compound in combination with 1 μM Galeterone
[11] = 1 μM tested compound in combination with 1 μM ODM-201
[12] = 1 μM tested compound in combination with 1 μM prednisone
[13] = 10 μM tested compound in combination with 1 μM Abiraterone acetate
[14] = 10 μM tested compound in combination with 1 μM B001
[15] = 10 μM tested compound in combination with 1 μM B001 and 1 μM Abiraterone acetate
[16] = 10 μM tested compound in combination with 1 μM B001 and 1 μM Galeterone
[17] = 10 μM tested compound in combination with 1 μM B001 and 1 μM ODM-201
[18] = 10 μM tested compound in combination with 1 μM B001 and 1 μM prednisone
[19] = 10 μM tested compound in combination with 1 μM B001 and 1 μM prednisone and 1 μM Abiraterone acetate
[20] = 10 μM tested compound in combination with 1 μM B001 and 1 μM prednisone and 1 μM Galeterone
[21] = 10 μM tested compound in combination with 1 μM B001 and 1 μM prednisone and 1 μM ODM-201
[22] = 10 μM tested compound in combination with 1 μM Galeterone
[23] = 10 μM tested compound in combination with 1 μM ODM-201
[24] = 10 μM tested compound in combination with 1 μM prednisone

SMILES	Survival rate of Vcap cells [1]	Survival rate of Vcap cells [3]	Survival rate of Vcap cells [4]	Survival rate of Vcap cells [5]	Survival rate of Vcap cells [6]	Survival rate of Vcap cells [7]	Survival rate of Vcap cells [8]	Survival rate of Vcap cells [9]	Survival rate of Vcap cells [10]	Survival rate of Vcap cells [11]	Survival rate of Vcap cells [12]	Survival rate of Vcap cells [13]	Survival rate of Vcap cells [14]	Survival rate of Vcap cells [15]	Survival rate of Vcap cells [16]	Survival rate of Vcap cells [17]	Survival rate of Vcap cells [18]	Survival rate of Vcap cells [19]	Survival rate of Vcap cells [20]	Survival rate of Vcap cells [21]	also measured
CNC(=O)c1ccc(N2C(=S)N(c3ccc(C#N)c(C(F)(F)F)c3F)C(=O)C2(C)C)cc1F [AR2-1]	69.2%	51.5%	52.8%	53.5%	60.5%	43.7%	47.3%	42.9%	71.8%	72.9%	77.7%	58.3%	46.508%	47.1%	48.7%	51.0%	48.4%	37.8%	37.6%	41.2%	Survival rate of Vcap cells [2]: 54.401%; Survival rate of Vcap cells [22]: 58.3%; Survival rate of Vcap cells [23]: 61.4%; Survival rate of Vcap cells [24]: 58.5%; viability at 1 µM: 74%; viability at 10 µM: 61.3%; effect of tested compound in combination with the other therapeutic agents (prednisone, Galeterone, Abiraterone acetate, ODM-201): did not improve significantly
CNC(=O)c1ccc(N2C(=S)N(c3ccc(C#N)c(OC)c3)C(=O)C23CCC3)cc1F [AR2-2]	74.3%	47.4%	43.6%	47.4%	50.5%	46.4%	46.2%	46.9%	70.9%	75.0%	79.5%	66.9%	41.974%	38.8%	38.7%	41.8%	37.3%	35.6%	35.2%	40.5%	Survival rate of Vcap cells [22]: 65.2%; Survival rate of Vcap cells [23]: 68.1%; Survival rate of Vcap cells [24]: 64.0%; viability at 1 µM: 65.7%; viability at 10 µM: 57.9%; effect of tested compound in combination with the other therapeutic agents (prednisone, Galeterone, Abiraterone acetate, ODM-201): did not improve significantly
CNC(=O)CCCc1ccc(N2C(=S)N(c3ccc(C#N)c(C(F)(F)F)c3F)C(=O)C2(C)C)cc1F [AR2-3]	74.1%	47.0%	45.2%	47.4%	51.7%	57.7%	56.0%	61.9%	75.8%	79.9%	78.6%	61.4%	45.283%	40.6%	40.1%	42.3%	40.7%	51.9%	51.9%	54.5%	Survival rate of Vcap cells [2]: 52.695%; Survival rate of Vcap cells [22]: 61.8%; Survival rate of Vcap cells [23]: 65.4%; Survival rate of Vcap cells [24]: 60.4%; viability at 1 µM: 73%; viability at 10 µM: 57.5%; effect of tested compound in combination with the other therapeutic agents (prednisone, Galeterone, Abiraterone acetate, ODM-201): did not improve significantly
CC1(C)C(=O)N(c2ccc(C#N)c(C(F)(F)F)c2F)C(=S)N1c1ccc(CCCC#N)c(F)c1 [AR2-4]	71.2%	52.7%	52.9%	55.8%	55.6%	49.4%	54.8%	50.9%	72.4%	74.1%	75.9%	42.4%	32.946%	33.3%	30.7%	33.9%	34.2%	31.1%	31.2%	29.2%	Survival rate of Vcap cells [2]: 53.165%; Survival rate of Vcap cells [22]: 38.4%; Survival rate of Vcap cells [23]: 42.3%; Survival rate of Vcap cells [24]: 42.3%; viability at 1 µM: 73.5%; viability at 10 µM: 41%; effect of tested compound in combination with the other therapeutic agents (prednisone, Galeterone, Abiraterone acetate, ODM-201): did not improve significantly
CC1(C)C(=O)N(c2ccc(C#N)c(C(F)(F)F)c2F)C(=S)N1c1ccc(CCCc2ncco2)nc1 [AR2-5]	80.0%	66.6%	68.6%	57.3%	67.2%	72.2%	71.5%	65.6%	81.6%	75.7%	89.0%	68.4%	58.564%	60.0%	62.7%	58.6%	56.1%	57.3%	58.4%	59.6%	Survival rate of Vcap cells [2]: 68.577%; Survival rate of Vcap cells [22]: 71.1%; Survival rate of Vcap cells [23]: 70.3%; Survival rate of Vcap cells [24]: 71.8%; viability at 1 µM: 86.2%; viability at 10 µM: 71.2%; effect of tested compound in combination with the other therapeutic agents (prednisone, Galeterone, Abiraterone acetate, ODM-201): did not improve significantly
CC1(C)C(=O)N(c2ccc(C#N)c(C(F)(F)F)c2)C(=S)N1c1ccc(OCC2(N)CC2)c(F)c1 [AR3-1]	72.8%	49.6%	48.4%	51.4%	57.9%	55.8%	54.5%	52.7%	74.3%	76.1%	81.6%	54.9%	41.310%	39.2%	38.2%	44.0%	40.8%	37.5%	37.9%	42.6%	Survival rate of Vcap cells [2]: 53.800%; Survival rate of Vcap cells [22]: 55.9%; Survival rate of Vcap cells [23]: 62.2%; Survival rate of Vcap cells [24]: 57.9%; viability at 1 µM: 76.5%; viability at 10 µM: 56.5%; effect of tested compound in combination with the other therapeutic agents (prednisone, Galeterone, Abiraterone acetate, ODM-201): did not improve significantly
